In publication PMC6212790:
The list shows a part of the results. At the low end of the ranking the order means little.
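Also: rank score from −0.5 (least bound) to 0.5 (best bound).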

The sequences below were run against T1, GST-Rok-C97-191 (UniProt O34857) (assay: protein binding microarray). Conditions: Rok is a gene silencer of Bacillus subtilis; high values mean tight binding; most listed sequences are background and not binding sites; double strand, one strand shown.
T1 sequence: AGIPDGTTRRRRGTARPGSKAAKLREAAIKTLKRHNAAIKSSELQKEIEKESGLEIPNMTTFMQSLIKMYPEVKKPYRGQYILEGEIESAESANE
ACGCTACT gave a binding signal of 0.209 E-score.
Sequence AAGGAACG has a binding signal of -0.244 E-score.
TGCCCCAA gave a binding signal of -0.241 E-score.
For CCCTCAAC, the binding signal was 0.0398 E-score.
In the case of CGGTCTTA, the binding signal is reported as 0.0367 E-score.
ATTCTCTA was tested, and the binding signal was 0.21 E-score.
For TCGAATAA, the binding signal was 0.0824 E-score.
Work on GATCCATA yielded a binding signal of -0.0337 E-score.
Work on ATAGTGTG yielded a binding signal of 0.0365 E-score.
With AGAAGTAA the binding signal was 0.231 E-score.
Sequence ACATGCGG has a binding signal of 0.0405 E-score.
Work on TAAAACAA yielded a binding signal of 0.0349 E-score.
AACCGGCG showed a binding signal of -0.12 E-score.
CACATCCG was tested, and the binding signal was 0.00313 E-score.
Sequence GGAATAAC has a binding signal of -0.0244 E-score.
CCCGAACC showed a binding signal of -0.146 E-score.
Work on GGTTAGTA yielded a binding signal of 0.00825 E-score.
For GAATCGGA, the binding signal was -0.078 E-score.
GGAGGGAC showed a binding signal of -0.279 E-score.
CGAAATAG was tested, and the binding signal was 0.0431 E-score.
ACCAAGAC showed a binding signal of -0.0137 E-score.
ACAGGTCG showed a binding signal of -0.236 E-score.
For CCCCCCGA, the binding signal was -0.38 E-score.
For CCGGAAGC, the binding signal was -0.279 E-score.
Work on AATTATAC yielded a binding signal of 0.348 E-score.
Sequence TAATCACA has a binding signal of 0.0445 E-score.
For GAGCAGAA, the binding signal was -0.173 E-score.
With CACGTTTC the binding signal was 0.00548 E-score.
CGGATGTA gave a binding signal of 0.148 E-score.
For TCTTCCAA, the binding signal was -0.255 E-score.
GCTCTTAA gave a binding signal of -0.131 E-score.
CCGTGGAG showed a binding signal of -0.0132 E-score.
Work on TAACGTAA yielded a binding signal of -0.0712 E-score.
In the case of ATTTATAC, the binding signal is reported as 0.348 E-score.
ACAGTTGA gave a binding signal of 0.152 E-score.
Sequence ATCGGGAC has a binding signal of -0.126 E-score.
CACGGACA was tested, and the binding signal was -0.294 E-score.
GACCGAGA showed a binding signal of -0.169 E-score.
AGTACGAT was tested, and the binding signal was 0.149 E-score.
ATAGTTTA gave a binding signal of 0.354 E-score.
AAATGGTG showed a binding signal of -0.075 E-score.
CCACTGCA was tested, and the binding signal was -0.174 E-score.
In the case of ACTCCATC, the binding signal is reported as -0.0741 E-score.
AGGCTCGC gave a binding signal of -0.3 E-score.
With ATCGATTA the binding signal was 0.0142 E-score.
CTACGCGC showed a binding signal of -0.0725 E-score.
ACCCAGCG showed a binding signal of -0.164 E-score.
For ATTTATGG, the binding signal was 0.174 E-score.
For ACTAAACA, the binding signal was 0.11 E-score.
With ACGCGCCT the binding signal was -0.21 E-score.
With GACGCACA the binding signal was -0.354 E-score.
CGTGCGCC showed a binding signal of -0.362 E-score.
For ATAGTGGG, the binding signal was 0.129 E-score.
With CGCGGCCA the binding signal was -0.406 E-score.
For AGCTCGTA, the binding signal was 0.00298 E-score.
In the case of ATAGGCCG, the binding signal is reported as -0.0602 E-score.
Sequence GCGACGGA has a binding signal of -0.261 E-score.
CCACAGGA was tested, and the binding signal was -0.0505 E-score.
CCAAGCTA gave a binding signal of 0.0958 E-score.
Work on CGCCGTCA yielded a binding signal of -0.0373 E-score.
AGTACGGG gave a binding signal of -0.0188 E-score.
ACCTTGTG gave a binding signal of 0.0568 E-score.
Work on GTTGAGTA yielded a binding signal of 0.00502 E-score.
With CCTAGGCC the binding signal was -0.204 E-score.
For AACATAAG, the binding signal was 0.194 E-score.
With ACAGGGCG the binding signal was -0.271 E-score.
With CCGGCCAC the binding signal was -0.268 E-score.
AGAGGATA showed a binding signal of -0.0217 E-score.
In the case of CTCATGAG, the binding signal is reported as -0.141 E-score.
For AGGCTCCC, the binding signal was -0.281 E-score.
With ACTGCTAG the binding signal was 0.105 E-score.
Sequence CAACGCAG has a binding signal of -0.0345 E-score.
In the case of ACGGTCCC, the binding signal is reported as -0.309 E-score.
With AACGCACT the binding signal was 0.151 E-score.
AGGTGGAA was tested, and the binding signal was -0.0991 E-score.
AGCCTCCC showed a binding signal of -0.266 E-score.
AAGTTCGG was tested, and the binding signal was -0.118 E-score.
In the case of ACTGAGCA, the binding signal is reported as -0.11 E-score.
In the case of CGCTAGTC, the binding signal is reported as -0.137 E-score.
ATACCATG showed a binding signal of 0.202 E-score.
AAATTTAG was tested, and the binding signal was 0.242 E-score.
Sequence ACATAAAG has a binding signal of -0.111 E-score.
AATGGTTC gave a binding signal of -0.0214 E-score.
CTACACCA was tested, and the binding signal was 0.0773 E-score.
Work on ATGCTTGG yielded a binding signal of 0.0526 E-score.
With CACAGAAA the binding signal was 0.162 E-score.
With GAGAGGCA the binding signal was -0.235 E-score.
In the case of GCTGCCGA, the binding signal is reported as -0.236 E-score.
Work on CTGCGTCA yielded a binding signal of -0.204 E-score.
For AGCGTTCC, the binding signal was -0.026 E-score.
GAGTTGAA gave a binding signal of -0.0634 E-score.
CCCACAGG gave a binding signal of -0.104 E-score.
Work on ACTCAGGC yielded a binding signal of -0.123 E-score.
For ATTTTTGG, the binding signal was 0.166 E-score.
